# Source: PubChem BioAssay (Tox21)
# “And” between values parts separate entries of the source, which are not always exact repeats. Identical values can stand only once. Inconclusive means that the source gave no clear call. Such entries were picked first, then a sample of the others. For part of these data: A potency beside an inconclusive call is a rough fit, not a confirmed value. The source made the active and inactive calls. Unless noted, calls follow the shape of the dose curve; as a rule, active = well fitted curve in the direction sought with a large enough effect in the repeat runs; inconclusive = weak or mixed curves; inactive = no such curve, though single readings can be large; an effect the other way counts as inactive or inconclusive.
# Assays:
# [1] = qHTS assay for small molecule agonists of the p53 signaling pathway (AID 651631; calls by dose curve; also: % is scaled to controls: 0 for no effect and ±100 for the full control effect; nearly all actives have a fitted effect of over 15% in size); settings: HCT-116 p53RE-bla reporter, beta-lactamase FRET ratio, 16 h; activation: at 73.3 µM (top of the series) unless noted
# How it was run: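 Read-out is beta-lactamase FRET fluorescence measured 2 h after substrate addition at room temperature, in HCT-116 cells with a p53 response element-driven reporter exposed to compounds for 16 h at 37 °C.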
# [2] = qHTS assay for identifying genotoxic compounds that show differential cytotoxicity against isogenic chicken DT40 cell lines with known DNA damage response pathways - wild type cell line (AID 743012); settings: DT40 wild type chicken cells viability, CellTiter-Glo, 40 h; activity change, negative = cytotoxicity: at 68.4 µM (top of the series) unless noted; also: nearly all actives have a fitted effect of over 60% in size; also: potency is read from the fitted curve at half-maximal effect
# How it was run: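 Using parental DT40 (300 cells/well), compounds delivered in DMSO incubate 40 h at 37 C/5% CO2. CellTiter-Glo reagent then stands 30 min at room temperature, and luminescence gives cell viability.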
# [3] = qHTS assay for identifying genotoxic compounds that show differential cytotoxicity against isogenic chicken DT40 cell lines with known DNA damage response pathways - Rev3 mutant cell line (AID 743014); settings: chicken DT40 Rev3-/- viability, CellTiter-Glo, 40 h; activity, negative = cytotoxicity: at 68.4 µM (top of the series) unless noted; also: nearly all actives have a fitted effect of over 55% in size; also: potency is read from the fitted curve at half-maximal effect
# [4] = qHTS assay to identify small molecule antagonists of the thyroid receptor (TR) signaling pathway - cell viability counter screen (AID 743064); settings: GH3.TRE-Luc viability, CellTiter-Fluor, 24 h; activity change, negative = cytotoxic: at 70.3 µM (top of the series) unless noted; also: potency is read from the fitted curve at half-maximal effect; nearly all actives have a fitted effect of over 50% in size
# How it was run: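 Fluorescence from CellTiter-Fluor, added after 23.5 h exposure at 37 °C, reported viability of GH3.TRE-Luc cells co-treated with compound and 1 nM T3. Measured in the same wells as the luciferase TR readout.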
# [5] = molecular target: Peroxisome proliferator-activated receptor delta (Homo sapiens) (UniProt Q03181); test: qHTS assay to identify small molecule antagonists of the peroxisome proliferator-activated receptor delta (PPARd) signaling pathway (AID 743215; active = well fitted inhibition curve with a large enough effect in the signal ratio in the repeat runs, not every such curve was filed as active; inconclusive = weak or mixed curves, or effect the other way; inactive = no such curve, though single readings can be large or run the other way; the % refers to the signal ratio;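 also: cells stimulated with agonist L165041 at 300 nM final during compound exposure; % is scaled to controls: 0 for no effect and ±100 for the full control effect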); settings: HEK293H PPARd-UAS-bla, beta-lactamase FRET ratio, antagonist, 17 h
# Chain of UniProt Q03181 (Q03181 whole entry, looked up): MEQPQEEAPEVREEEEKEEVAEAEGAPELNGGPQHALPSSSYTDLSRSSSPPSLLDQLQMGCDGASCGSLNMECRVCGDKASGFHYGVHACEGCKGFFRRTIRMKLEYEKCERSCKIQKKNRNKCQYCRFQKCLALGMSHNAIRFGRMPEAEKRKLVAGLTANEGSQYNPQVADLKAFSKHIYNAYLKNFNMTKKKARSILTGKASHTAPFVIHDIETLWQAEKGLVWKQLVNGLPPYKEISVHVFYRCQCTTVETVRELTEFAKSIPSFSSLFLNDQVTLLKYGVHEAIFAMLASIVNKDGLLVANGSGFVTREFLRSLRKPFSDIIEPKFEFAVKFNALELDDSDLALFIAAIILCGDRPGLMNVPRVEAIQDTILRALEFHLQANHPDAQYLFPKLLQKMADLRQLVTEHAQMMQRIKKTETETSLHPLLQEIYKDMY
# How it was run: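 With L165041 present at 300 nM final, compounds were incubated 17 h at 37 C on PPARd UAS-bla HEK293H cells. A FRET-based beta-lactamase substrate was then applied for 2 h at room temperature and fluorescence intensity recorded.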
# [6] = molecular target: Luciferin 4-monooxygenase (Photinus pyralis) (UniProt P08659); test: qHTS assay to identify small molecule inhibitors of firefly luciferase (AID 1224835); also: nearly all actives have a fitted effect of over 25% in size; also: potency is read from the fitted curve at half-maximal effect
# Chain of UniProt P08659 (P08659 whole entry, looked up): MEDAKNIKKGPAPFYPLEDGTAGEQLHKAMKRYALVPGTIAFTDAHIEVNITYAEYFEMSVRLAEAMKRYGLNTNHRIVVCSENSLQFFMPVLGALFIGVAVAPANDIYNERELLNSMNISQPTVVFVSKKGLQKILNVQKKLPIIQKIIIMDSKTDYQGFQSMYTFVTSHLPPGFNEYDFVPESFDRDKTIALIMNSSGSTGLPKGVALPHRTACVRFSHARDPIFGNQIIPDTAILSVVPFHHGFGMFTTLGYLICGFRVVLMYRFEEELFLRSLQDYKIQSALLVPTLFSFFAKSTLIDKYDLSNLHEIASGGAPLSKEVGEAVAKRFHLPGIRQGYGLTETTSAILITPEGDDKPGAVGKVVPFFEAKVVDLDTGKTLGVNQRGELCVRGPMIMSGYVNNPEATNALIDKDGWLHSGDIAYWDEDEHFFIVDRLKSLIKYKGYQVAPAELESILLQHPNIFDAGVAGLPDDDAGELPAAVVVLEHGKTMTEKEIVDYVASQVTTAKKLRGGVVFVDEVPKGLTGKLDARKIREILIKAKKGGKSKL
# How it was run: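 Quantitative HTS format; KM concentrations of both substrates. Purified P. pyralis FLuc activity quantified from luminescence images.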
# [7] = qHTS RealTime-Glo MT Cell Viability Assay in HEK293 cells - 24 hour (AID 1224886); also: potency is read from the fitted curve at half-maximal effect; nearly all actives have a fitted effect of over 50% in size
# How it was run: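 Reads taken at 0, 8, 16, 24, 32 and 40 h from the same wells. HEK293 cells (600/well) carried RealTime-Glo reagents from seeding, with compound added after a 5 h settle at 37 C.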
# [8] = molecular target: Estrogen receptor beta (Homo sapiens) (UniProt Q92731); test: qHTS assay to identify small molecule antagonists of the estrogen receptor beta (ER-beta) signaling pathway (AID 1259378; active = well fitted inhibition curve with a large enough effect in the signal ratio in the repeat runs, not every such curve was filed as active; inconclusive = weak or mixed curves, or effect the other way; inactive = no such curve, though single readings can be large or run the other way; the % refers to the signal ratio; also: % is scaled to controls: 0 for no effect and ±100 for the full control effect); settings: ER-beta-UAS-bla HEK293T, beta-lactamase FRET ratio, 16 h
# Chain of UniProt Q92731 (Q92731 whole entry, looked up): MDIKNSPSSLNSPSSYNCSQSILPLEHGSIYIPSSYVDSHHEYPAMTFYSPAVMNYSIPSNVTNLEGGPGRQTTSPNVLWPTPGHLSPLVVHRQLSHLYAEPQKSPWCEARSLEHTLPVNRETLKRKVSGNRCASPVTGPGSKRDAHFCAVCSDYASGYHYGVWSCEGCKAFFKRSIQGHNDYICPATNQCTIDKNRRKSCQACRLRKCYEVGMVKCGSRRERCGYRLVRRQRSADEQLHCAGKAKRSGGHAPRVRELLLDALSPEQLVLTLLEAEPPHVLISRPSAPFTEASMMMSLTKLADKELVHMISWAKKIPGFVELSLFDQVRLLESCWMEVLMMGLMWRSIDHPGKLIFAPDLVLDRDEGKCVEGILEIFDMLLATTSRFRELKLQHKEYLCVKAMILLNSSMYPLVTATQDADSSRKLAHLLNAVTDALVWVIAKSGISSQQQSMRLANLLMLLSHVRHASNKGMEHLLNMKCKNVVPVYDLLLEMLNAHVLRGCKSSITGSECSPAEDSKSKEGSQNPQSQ
# How it was run: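 ER-beta-UAS-bla HEK293T (GripTite) cells in 2% charcoal-stripped FBS medium were preincubated 6 hr at 37C, dosed with compound, then stimulated with 1 nM E2 (final) for 16 hr; beta-lactamase reporter read by B/G FRET fluorescence after 2 hr substrate loading.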
# [9] = qHTS assay to identify small molecule agonists of the progesterone receptor (PR) signaling pathway - cell viability counter screen (AID 1346799; calls by dose curve; also: nearly all actives have a fitted effect of over 45% in size; also: potency is read from the fitted curve at half-maximal effect)
# How it was run: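 Luminescence from CellTiter-Glo, added after the beta-lactamase FRET read in the same wells, gave cytotoxicity in PR-UAS-bla HEK293T cells treated with compounds for 16 hr at 37C.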
# [10] = molecular target: Peroxisome proliferator-activated receptor gamma (Homo sapiens) (UniProt P37231); test: qHTS assay to identify small molecule antagonists of the peroxisome proliferator-activated receptor gamma (PPARg) signaling pathway (AID 743191; calls by dose curve; also: % is scaled to controls: 0 for no effect and ±100 for the full control effect; nearly all actives have a fitted effect of over 30% in size); settings: HEK293H PPARg-UAS-bla, beta-lactamase ratio, antagonist, 17 h; ratio activity, negative = inhibition: at 62.6 µM (top of the series) unless noted
# Chain of UniProt P37231 (P37231 whole entry, looked up): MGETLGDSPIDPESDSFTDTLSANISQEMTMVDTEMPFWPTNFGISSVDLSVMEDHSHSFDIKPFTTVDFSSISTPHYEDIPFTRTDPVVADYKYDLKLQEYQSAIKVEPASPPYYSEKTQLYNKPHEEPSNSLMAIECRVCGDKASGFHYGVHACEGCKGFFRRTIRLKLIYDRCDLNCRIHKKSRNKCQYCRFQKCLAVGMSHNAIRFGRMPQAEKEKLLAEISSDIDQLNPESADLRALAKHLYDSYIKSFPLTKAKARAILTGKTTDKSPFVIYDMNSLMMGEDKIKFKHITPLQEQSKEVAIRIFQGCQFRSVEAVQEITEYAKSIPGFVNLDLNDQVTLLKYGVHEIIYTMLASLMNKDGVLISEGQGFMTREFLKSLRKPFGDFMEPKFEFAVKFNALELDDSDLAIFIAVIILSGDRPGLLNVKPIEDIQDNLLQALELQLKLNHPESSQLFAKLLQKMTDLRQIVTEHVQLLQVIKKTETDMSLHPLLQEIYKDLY
# How it was run: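 GeneBLAzer PPARg UAS-bla HEK293H cells carrying a UAS-driven beta-lactamase reporter were plated at 3000 cells/well, preincubated 5 h at 37C, then given compound for 17 h at 37C; LiveBLAzer B/G FRET substrate was read after 1 h at room temperature.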
# [11] = qHTS assay for small molecule agonists of the antioxidant response element (ARE) signaling pathway (AID 743202; active = well fitted activation curve with a large enough effect in the signal ratio in the repeat runs, not every such curve was filed as active; inconclusive = weak or mixed curves, or effect the other way; inactive = no such curve, though single readings can be large or run the other way; the % refers to the signal ratio; also: % is scaled to controls: 0 for no effect and ±100 for the full control effect); settings: HepG2 ARE-bla reporter, beta-lactamase FRET, 16 h; activation: at 73.3 µM (top of the series) unless noted
# How it was run: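 Compounds delivered in DMSO to ARE-bla HepG2 cells (2,000 cells/well, pre-incubated 5 h) and left 16 h at 37 C. LiveBLAzer B/G FRET substrate then added for 2 h at RT before fluorescence reading.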
# [12] = molecular target: Vitamin D3 receptor (Homo sapiens) (UniProt P11473); test: qHTS assay to identify small molecule antagonists of the vitamin D receptor (VDR) signaling pathway (AID 743223; active = well fitted inhibition curve with a large enough effect in the signal ratio in the repeat runs, not every such curve was filed as active; inconclusive = weak or mixed curves, or effect the other way; inactive = no such curve, though single readings can be large or run the other way; the % refers to the signal ratio; also: % is scaled to controls: 0 for no effect and ±100 for the full control effect); settings: VDR-UAS-bla HEK293T, beta-lactamase FRET ratio, 16 h; activity change, negative = inhibition: at 61 µM (top of the series) unless noted
# Chain of UniProt P11473 (P11473 whole entry, looked up): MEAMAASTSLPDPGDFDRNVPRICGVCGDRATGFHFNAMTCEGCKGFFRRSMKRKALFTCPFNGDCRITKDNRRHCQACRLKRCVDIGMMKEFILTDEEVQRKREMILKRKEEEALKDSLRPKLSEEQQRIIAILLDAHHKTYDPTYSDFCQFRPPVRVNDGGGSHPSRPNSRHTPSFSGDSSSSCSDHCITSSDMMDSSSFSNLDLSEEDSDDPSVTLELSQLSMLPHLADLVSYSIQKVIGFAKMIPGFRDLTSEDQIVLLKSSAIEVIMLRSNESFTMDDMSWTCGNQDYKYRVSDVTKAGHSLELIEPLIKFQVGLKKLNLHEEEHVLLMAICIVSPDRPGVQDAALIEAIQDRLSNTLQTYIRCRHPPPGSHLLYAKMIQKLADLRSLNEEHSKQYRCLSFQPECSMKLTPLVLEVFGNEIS
# How it was run: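 Antagonist mode uses 1alpha,25-dihydroxyvitamin D3 at 3 nM final as stimulus. VDR-bla cells receive compounds in DMSO, incubate 16 h at 37C, then a beta-lactamase FRET substrate for 2 h at room temperature before fluorescence measurement.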
# [13] = molecular target: Progesterone receptor (Homo sapiens) (UniProt P06401); test: qHTS assay to identify small molecule antagonists of the progesterone receptor (PR) signaling pathway (AID 1346795; active = well fitted inhibition curve with a large enough effect in the signal ratio in the repeat runs, not every such curve was filed as active; inconclusive = weak or mixed curves; the % refers to the signal ratio; also: % is scaled to controls: 0 for no effect and ±100 for the full control effect); settings: PR-UAS-bla HEK293T, beta-lactamase FRET ratio, 16 h; activity change, negative = inhibition: at 92.4 µM (top of the series) unless noted
# Chain of UniProt P06401 (P06401 whole entry, looked up): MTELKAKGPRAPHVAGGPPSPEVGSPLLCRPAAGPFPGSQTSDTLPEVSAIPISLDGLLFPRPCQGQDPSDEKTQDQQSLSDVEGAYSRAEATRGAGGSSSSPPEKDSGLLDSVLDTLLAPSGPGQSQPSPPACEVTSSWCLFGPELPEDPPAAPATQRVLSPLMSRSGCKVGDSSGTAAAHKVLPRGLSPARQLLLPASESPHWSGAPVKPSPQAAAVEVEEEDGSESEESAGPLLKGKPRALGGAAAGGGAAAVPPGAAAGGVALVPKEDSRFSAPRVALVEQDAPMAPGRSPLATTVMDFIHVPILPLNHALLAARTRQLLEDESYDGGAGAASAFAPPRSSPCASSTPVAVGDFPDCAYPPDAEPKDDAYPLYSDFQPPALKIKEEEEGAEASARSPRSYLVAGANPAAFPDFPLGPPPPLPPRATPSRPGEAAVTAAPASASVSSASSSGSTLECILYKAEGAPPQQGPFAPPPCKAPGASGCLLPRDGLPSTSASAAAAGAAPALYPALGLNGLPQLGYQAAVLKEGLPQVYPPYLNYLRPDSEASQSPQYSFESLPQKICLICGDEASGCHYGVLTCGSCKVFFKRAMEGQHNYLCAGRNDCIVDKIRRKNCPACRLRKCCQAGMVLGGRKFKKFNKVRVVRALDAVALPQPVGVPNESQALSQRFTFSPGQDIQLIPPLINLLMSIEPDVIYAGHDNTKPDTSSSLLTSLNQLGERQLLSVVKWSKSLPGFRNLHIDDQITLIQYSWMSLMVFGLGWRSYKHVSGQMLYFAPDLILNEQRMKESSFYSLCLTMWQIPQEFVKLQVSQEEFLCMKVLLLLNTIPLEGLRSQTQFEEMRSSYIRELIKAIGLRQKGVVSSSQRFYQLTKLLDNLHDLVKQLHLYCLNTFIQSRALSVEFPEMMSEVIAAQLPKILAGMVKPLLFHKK
# How it was run: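 Read-out is fluorescence from the LiveBLAzer B/G FRET substrate, cleaved by a UAS-controlled beta-lactamase in PR-UAS-bla HEK293T cells after 16 hr exposure to compound plus 1 nM promegestone (final), followed by 2 hr at room temperature.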
# [14] = molecular target: Cytochrome P450 1A2 (Homo sapiens) (UniProt P05177); test: Cytochrome P450 Family 1 Subfamily A Member 2 (CYP1A2) small molecule antagonists: luciferase reporter qHTS assay (AID 1671199); also: potency is read from the fitted curve at half-maximal effect; nearly all actives have a fitted effect of over 50% in size
# Chain of UniProt P05177 (P05177 whole entry, looked up): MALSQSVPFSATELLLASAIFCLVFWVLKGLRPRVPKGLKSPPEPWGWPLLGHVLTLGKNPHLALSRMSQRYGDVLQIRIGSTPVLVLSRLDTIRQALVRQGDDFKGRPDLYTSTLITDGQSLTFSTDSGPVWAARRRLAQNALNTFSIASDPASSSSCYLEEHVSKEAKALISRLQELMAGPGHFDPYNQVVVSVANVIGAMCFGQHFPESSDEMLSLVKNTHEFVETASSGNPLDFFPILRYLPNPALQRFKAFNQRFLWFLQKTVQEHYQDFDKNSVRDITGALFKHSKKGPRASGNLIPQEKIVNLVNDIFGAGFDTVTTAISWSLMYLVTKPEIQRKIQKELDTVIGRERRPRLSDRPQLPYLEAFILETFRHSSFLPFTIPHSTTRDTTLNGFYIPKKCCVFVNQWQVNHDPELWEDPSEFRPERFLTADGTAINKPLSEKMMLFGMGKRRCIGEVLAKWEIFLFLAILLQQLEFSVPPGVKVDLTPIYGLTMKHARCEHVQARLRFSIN
# How it was run: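 CYP1A2 turnover of a luminogenic substrate was quantified after 1 h with NADPH regeneration at room temperature. Furafylline served as positive control.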
# [15] = qHTS assay to identify small molecule antagonists of the progesterone receptor (PR) signaling pathway - cell viability counter screen (AID 1346798); also: nearly all actives have a fitted effect of over 50% in size; also: potency is read from the fitted curve at half-maximal effect
# How it was run: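 HEK293T PR-UAS-bla, 2% charcoal-stripped FBS; 4 hr pre-plate; cpd + R5020, 16 h 37C; LiveBLAzer read first; then CellTiter-Glo 30 min RT, luminescence.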
# [16] = molecular target: Cytochrome P450 2C9 (Homo sapiens) (UniProt P11712); test: Cytochrome P450 Family 2 Subfamily C Member 9 (CYP2C9) small molecule antagonists: luciferase reporter qHTS assay (AID 1671198); also: nearly all actives have a fitted effect of over 50% in size; also: potency is read from the fitted curve at half-maximal effect
# Chain of UniProt P11712 (P11712 whole entry, looked up): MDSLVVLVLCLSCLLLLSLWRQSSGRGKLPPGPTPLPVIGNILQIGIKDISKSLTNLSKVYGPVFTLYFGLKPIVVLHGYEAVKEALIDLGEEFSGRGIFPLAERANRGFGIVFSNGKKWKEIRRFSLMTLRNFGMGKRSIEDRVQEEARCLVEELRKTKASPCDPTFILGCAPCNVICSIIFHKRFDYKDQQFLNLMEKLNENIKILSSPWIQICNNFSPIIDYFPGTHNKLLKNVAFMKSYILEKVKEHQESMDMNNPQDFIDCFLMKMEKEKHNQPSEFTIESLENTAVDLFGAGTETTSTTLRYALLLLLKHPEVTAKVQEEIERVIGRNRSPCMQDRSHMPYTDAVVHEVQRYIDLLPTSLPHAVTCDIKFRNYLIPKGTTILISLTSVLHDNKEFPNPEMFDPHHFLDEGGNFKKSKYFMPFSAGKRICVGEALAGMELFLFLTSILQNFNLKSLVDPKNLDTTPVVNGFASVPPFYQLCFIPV
# How it was run: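 CYP2C9 activity was measured with a P450-Glo proluciferin substrate. Enzyme–substrate mix was held with compound for 10 min at room temperature, then NADPH regeneration solution was added for 1 h at 37C. Luciferin product was read as luminescence.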
# [17] = qHTS assay for small molecule disruptors of the mitochondrial membrane potential (AID 720635); settings: HepG2 mitochondrial membrane potential, Mito-MPS dye ratio; ratio activity, negative = MMP loss: at 83.2 µM (top of the series) unless noted; also: % is scaled to controls: 0 for no effect and ±100 for the full control effect
# How it was run: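 HepG2 cells (2,000/well) attached overnight at 37C, then took compound for 1 hr at 37C, 5% CO2. Mito-MPS dye was added for 30 min; fluorescence was read at 490/535 nm (monomers) and 540/590 nm (aggregates).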
# [18] = molecular target: Glucocorticoid receptor (Homo sapiens) (UniProt P04150); test: qHTS assay to identify small molecule antagonists of the glucocorticoid receptor (GR) signaling pathway (AID 720692; active = well fitted inhibition curve with a large enough effect in the signal ratio in the repeat runs, not every such curve was filed as active; inconclusive = weak or mixed curves, or effect the other way; inactive = no such curve, though single readings can be large or run the other way; the % refers to the signal ratio; also: % is scaled to controls: 0 for no effect and ±100 for the full control effect); settings: GR-bla HeLa, beta-lactamase FRET ratio, dexamethasone-stimulated, 18 h; activity change, negative = inhibition: at 58.5 µM (top of the series) unless noted
# How it was run: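 Dexamethasone (5 nM final) stimulated a stably integrated GRE-beta-lactamase reporter in HeLa cells during 18 h co-incubation with compounds; signal was quantified as fluorescence intensity of B/G FRET substrate after 2 h.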
# [19] = activity, negative = inhibition: at 92.4 µM (top of the series) unless noted
# Tags tell the direction and shape of the fitted curve.
compound,measurement,setting,value
O=c1[nH]c(=O)n([C@H]2C[C@H](O)[C@@H](CO)O2)cc1Br,activation,[1],inconclusive: 9.17%
same,Potency,[2],"inconclusive: 16.8 µM [cytotoxic, partial curve, poor fit]"
same,Potency,[3],"inconclusive: 6.68 µM [cytotoxic, partial curve, poor fit] and inconclusive: 8.77 µM [cytotoxic, partial curve, poor fit]"
same,Potency,[4],"inconclusive: 33.5 µM [cytotoxic, single point]"
same,"ratio activity, negative = inhibition",[5]; at 62 µM (top of the series),inconclusive: -0.445%
same,"ratio activity, negative = inhibition",[5]; at 80.4 µM (top of the series),inconclusive: -1.53%
same,Potency,[6],inactive
same,Potency,[7],"inconclusive: 31.4 µM [rising, single point]"
same,"activity, negative = inhibition",[8]; [19],inconclusive: 23.5% [at 42.5 µM]
same,"activity, negative = inhibition",[8]; at 92.4 µM (top of the series),inactive: 14.3%
same,Potency,[9],"inconclusive: 26.6 µM [cytotoxic, partial curve]"
CC(=O)c1cccnc1,"ratio activity, negative = inhibition",[10],inconclusive: 35.8%
same,activation,[11],inconclusive: 7.29%
same,"activity change, negative = inhibition",[12],inconclusive: 4.57%
same,Potency,[6],inactive
same,Potency,[9],inactive
CC(C)C(=O)Nc1cccc(C(F)(F)F)c1,"ratio activity, negative = inhibition",[10],inconclusive: 1.58%
same,Potency,[12],inactive
same,Potency,[6],"inconclusive: 43.6 µM [inhibitor, partial curve, poor fit]"
same,Potency,[13],inactive
same,Potency,[14],active: 7.76 µM
COc1cc(OC)nc(O[C@H](C(=O)O)C(OC)(c2ccccc2)c2ccccc2)n1,"ratio activity, negative = inhibition",[10],inconclusive: -2.19%
same,Potency,[8]; [19],inactive
same,"activity change, negative = inhibition",[13],inconclusive: 0.424% [at 42.5 µM]
same,Potency,[15],"inconclusive: 0.668 µM [cytotoxic, single point]"
same,Potency,[16],"inconclusive: 30.9 µM [inhibitor, partial curve]"
CC(C(=O)O)c1ccc2c(c1)CC(=O)c1ccccc1S2 (stereo not drawn),Potency,[17],inactive
same,"ratio activity, negative = inhibition",[10],inconclusive: -18%
same,Potency,[9],inactive
same,Potency,[16],"inconclusive: 30.9 µM [inhibitor, partial curve]"
same,Potency,[14],"inconclusive: 34.7 µM [inhibitor, partial curve, poor fit]"
CCCCOC(=O)C(C)OC(=O)CCC (stereo not drawn),Potency,[1],inactive
same,"ratio activity, negative = MMP loss",[17],inconclusive: 4.41%
same,"activity change, negative = cytotoxicity",[2],inconclusive: 35.6%
same,"ratio activity, negative = inhibition",[10],inconclusive: 18.5%
same,"activity change, negative = inhibition",[12],inconclusive: 2.39%
same,Potency,[15],inactive
Cc1ccnc(NS(=O)(=O)c2ccc(N)cc2)n1,Potency,[2],inactive
same,Potency,[3],inactive
same,Potency,[11],inactive
same,Potency,[15],inactive
C[N+](C)(C)CCOC(=O)CCC(=O)OCC[N+](C)(C)C,Potency,[1],inactive
same,Potency,[17],inactive
same,"activity change, negative = inhibition",[18],inconclusive: 0.67%
same,Potency,[6],inactive
same,Potency,[8]; [19],inactive
same,Potency,[15],inactive
same,Potency,[16],inactive
